This passage reports relative growth results from the supplement of paper PMC9446081.

The campaign covered roughly 39,000 compounds. About 220 (0.56%) showed activity. The list shows a part of the results.
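Also: static incubation at 37 °C against the wild-type strain, values averaged over two biological replicates.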

The test system of the assay is Escherichia coli K-12 BW25113. The assay is described as follows: relative growth (OD600 normalised to plate interquartile mean) (fraction); higher = less growth inhibition, active = 0.2 or less. Particulars: 50 µM; LB; incubation time: overnight (16-24 h).
Take `C[C@H](CO)N1C[C@H](C)[C@H](CN(C)C(=O)Nc2ccccc2F)OCCCC[C@H](C)Oc2ccc(NC(=O)C3CCCCC3)cc2C1=O`: the relative growth was inactive: 1.

Take `C=C1C(C2(C)C=CC(=O)C(C)(C)C2CC(=O)OC)CCC2(C)C(c3ccoc3)OC(=O)C3OC132` (stereo not drawn): the relative growth is inactive: 1.07.

Take `C[C@@H]1CCCCO[C@H](CN(C)Cc2ccc(C(F)(F)F)cc2)[C@H](C)CN([C@H](C)CO)C(=O)c2cc(NC(=O)Nc3ccccc3)ccc2O1`: the relative growth was inactive: 1.04.

For the molecule `Cc1noc(C)c1NC(=O)Nc1ccc2c(c1)C(=O)N([C@@H](C)CO)C[C@H](C)[C@H](CN(C)S(=O)(=O)c1ccc(F)cc1)OCCCC[C@H](C)O2`, the relative growth is inactive: 1.

For the molecule `Cc1noc(C)c1NC(=O)N(C)C[C@H]1Oc2ccc(NC(=O)c3ccncc3)cc2CC(=O)N([C@@H](C)CO)C[C@H]1C`, the relative growth was inactive: 0.971.

Consider `C[N+](C)(C)CCCCNC(=O)[C@H]1C[C@H]2C(=O)NCC(=O)N2[C@H]1c1ccc(O)cc1`, for which the relative growth was inactive: 1.02.

For the molecule `C[C@H](CO)N1C[C@H](C)[C@H](CN(C)S(=O)(=O)c2ccc(F)cc2)Oc2ncc(C#CC(C)(C)O)cc2C1=O`, the relative growth was inactive: 0.891.

For the molecule `C[C@@H]1CCCCO[C@H](CN(C)Cc2ccc(Cl)c(Cl)c2)[C@H](C)CN([C@@H](C)CO)C(=O)c2cc(NC(=O)Cc3ccccc3)ccc2O1`, the relative growth was inactive: 1.02.

As for `COc1ccc(NC(=O)Nc2ccc3c(c2)CC(=O)N([C@H](C)CO)C[C@H](C)[C@H](CN(C)Cc2ccc(Cl)c(Cl)c2)O3)cc1`, the relative growth was inactive: 1.04.

`C[C@@H]1CN([C@H](C)CO)S(=O)(=O)c2ccc(C#C[C@@H](C)O)cc2O[C@H]1CN(C)C`: the relative growth is inactive: 0.973.

As to `Cc1c(C)n2c3c(=O)n(C)c(=O)n(C)c3nc2n1CCN1CCOCC1`, the relative growth was inactive: 0.99.

As for `COc1ccc(CN(C)C[C@H]2Oc3ccc(NS(=O)(=O)c4cn(C)cn4)cc3CC(=O)N([C@@H](C)CO)C[C@H]2C)cc1`, the relative growth is inactive: 0.987.

Turning to `C[C@@H]1CCCCO[C@@H](CN(C)S(=O)(=O)c2cn(C)cn2)[C@@H](C)CN([C@H](C)CO)C(=O)c2cc(NS(=O)(=O)c3ccccc3)ccc2O1`, the relative growth is inactive: 0.998.

Regarding `Cc1ccc(S(=O)(=O)Nc2ccc3c(c2)C(=O)N([C@@H](C)CO)C[C@@H](C)[C@H](CN(C)Cc2ccncc2)OCCCC[C@@H](C)O3)cc1`, the relative growth was inactive: 0.99.

Turning to `C[C@@H]1CN([C@H](C)CO)C(=O)c2cc(NS(=O)(=O)c3ccc(F)cc3)ccc2O[C@@H](C)CCCCO[C@@H]1CN(C)C(=O)C1CCCCC1`, the relative growth was inactive: 0.993.

As for `C[C@H]1CCCCO[C@H](CN(C)CC2CCCCC2)[C@@H](C)CN([C@@H](C)CO)C(=O)c2cc(NC(=O)Nc3ccc(F)cc3)ccc2O1`, the relative growth was inactive: 0.996.

Turning to `C[C@H](CO)N1C[C@H](C)[C@H](CN(C)C)Oc2cc(C#CCN(C)C)ccc2S1(=O)=O`, the relative growth was inactive: 0.962.

As to `Cc1noc(C)c1NC(=O)Nc1ccc2c(c1)C(=O)N([C@H](C)CO)C[C@H](C)[C@@H](CN(C)Cc1ccc(C(=O)O)cc1)OCCCC[C@@H](C)O2`, the relative growth is inactive: 0.894.

With `C[C@@H]1CN([C@@H](C)CO)C(=O)Cc2cc(NS(=O)(=O)c3ccc(F)cc3)ccc2O[C@@H]1CN(C)C(=O)Nc1cccc2ccccc12`, the relative growth is inactive: 1.03.

Consider `Cc1cc(SCc2ccc(F)cc2)c(C)cc1Cl`, for which the relative growth is inactive: 0.874.

As to `C[C@H]1CN([C@@H](C)CO)C(=O)Cc2cc(NC(=O)Nc3cccc4ccccc34)ccc2O[C@H]1CN(C)S(=O)(=O)c1cccs1`, the relative growth is inactive: 1.01.

For the molecule `C[C@H]1CCCCO[C@@H](CN(C)S(=O)(=O)c2ccc(F)cc2)[C@@H](C)CN([C@@H](C)CO)C(=O)c2cc(NS(=O)(=O)c3cn(C)cn3)ccc2O1`, the relative growth is inactive: 0.997.

Take `C[C@H](CO)N1C[C@H](C)[C@H](CN(C)C(=O)C2CCOCC2)Oc2cc(C#Cc3ccncc3)ccc2S1(=O)=O`: the relative growth was inactive: 1.

On to `C[C@@H]1CN([C@H](C)CO)C(=O)c2cc(NC(=O)Cn3cnnn3)ccc2O[C@@H]1CN(C)CC1CC1`, for which the relative growth is inactive: 1.02.

As for `OCC(CO)N[C@H]1C[C@](O)(CO)[C@@H](O)[C@H](O)[C@H]1O`, the relative growth is inactive: 0.996.

Take `Cc1noc(C)c1S(=O)(=O)N(C)C[C@H]1Oc2ccc(NS(=O)(=O)c3cn(C)cn3)cc2CC(=O)N([C@@H](C)CO)C[C@@H]1C`: the relative growth was inactive: 0.999.

Take `COc1ccc(NC(=O)Nc2ccc3c(c2)C(=O)N([C@H](C)CO)C[C@H](C)[C@@H](CN(C)C(=O)NC2CCCCC2)OCCCC[C@@H](C)O3)cc1`: the relative growth is inactive: 1.

For `Cc1ccc(S(=O)(=O)Nc2ccc3c(c2)C(=O)N([C@@H](C)CO)C[C@@H](C)[C@@H](CN(C)C(=O)Nc2ccc(C(F)(F)F)cc2)OCCCC[C@@H](C)O3)cc1`, the relative growth was inactive: 0.991.

On to `C[C@@H]1CN([C@H](C)CO)C(=O)CCCn2cc(nn2)CO[C@H]1CN(C)S(C)(=O)=O`, for which the relative growth is inactive: 0.99.

Consider `CC(=O)O[C@H]1CC[C@]2(C)[C@H]3CC[C@@]4(C)[C@H](c5ccoc5)OC(=O)[C@H]5O[C@]54[C@]3(C)[C@H](OC(C)=O)C[C@H]2C1(C)C`, for which the relative growth was inactive: 0.999.

Take `Cc1noc(C)c1S(=O)(=O)Nc1ccc2c(c1)C(=O)N([C@@H](C)CO)C[C@H](C)[C@H](CN(C)C(=O)Nc1ccccc1)O2`: the relative growth was inactive: 1.05.

Regarding `CC(C)NC(=O)N(C)C[C@@H]1Oc2ccc(NS(=O)(=O)c3ccc(Cl)cc3)cc2C(=O)N([C@@H](C)CO)C[C@@H]1C`, the relative growth is inactive: 1.02.

As for `C[C@H](CO)N1C[C@H](C)[C@H](CN(C)C(=O)Nc2cccc3ccccc23)Oc2c(NC(=O)Nc3cccc4ccccc34)cccc2C1=O`, the relative growth is inactive: 1.03.

For the molecule `C=CCN1C[C@H](C(N)=O)CC1=O`, the relative growth was inactive: 1.02.

Take `C[C@@H]1CN([C@@H](C)CO)C(=O)c2cccc(NC(=O)Nc3cccc4ccccc34)c2O[C@H]1CN(C)S(=O)(=O)c1ccccc1F`: the relative growth was inactive: 1.03.

For `COc1ccc(CN(C)C[C@H]2OCCCC[C@H](C)Oc3ccc(NC(=O)Nc4ccc(F)cc4)cc3C(=O)N([C@H](C)CO)C[C@@H]2C)cc1`, the relative growth is inactive: 0.929.

On to `Cc1ccc(S(=O)(=O)N(C)C[C@@H]2Oc3ccc(NC(=O)Nc4ccc(C(F)(F)F)cc4)cc3C(=O)N([C@H](C)CO)C[C@H]2C)cc1`, for which the relative growth is inactive: 1.03.

With `C[C@H]1CN([C@@H](C)CO)S(=O)(=O)c2ccc(C#CCN(C)C)cc2O[C@H]1CN(C)C(=O)c1ccccc1F`, the relative growth was inactive: 1.

For `CSCC[C@H](NC(=O)[C@H](Cc1ccc(OS(=O)(=O)O)cc1)NC(=O)[C@@H](N)CC(=O)O)C(=O)NCC(=O)N[C@@H](Cc1c[nH]c2ccccc12)C(=O)N[C@@H](CCSC)C(=O)N[C@@H](CC(=O)O)C(=O)N[C@@H](Cc1ccccc1)C(N)=O`, the relative growth was inactive: 1.

With `CC(=O)N(C)C[C@@H]1Oc2ncc(C#CC(C)(C)O)cc2C(=O)N([C@@H](C)CO)C[C@@H]1C`, the relative growth is inactive: 1.01.

Take `C[C@H]1CN([C@@H](C)CO)C(=O)Cc2cc(NC(=O)CCN3CCOCC3)ccc2O[C@@H]1CN(C)Cc1ccc(C(=O)Nc2ccccc2N)cc1`: the relative growth was inactive: 1.03.

In the case of `COc1ccc(NC(=O)N(C)C[C@@H]2Oc3ncc(C#C[C@H](C)O)cc3C(=O)N([C@H](C)CO)C[C@@H]2C)cc1`, the relative growth was inactive: 0.994.

For the molecule `O=C(NN1C(=O)CSC1=S)c1ccco1`, the relative growth is inactive: 0.977.

Regarding `Cc1ccc(S(=O)(=O)Nc2cccc3c2O[C@H](CN(C)C(=O)Nc2cccc4ccccc24)[C@@H](C)CN([C@@H](C)CO)C3=O)cc1`, the relative growth was inactive: 0.889.

As for `C[C@@H]1CN([C@H](C)CO)C(=O)c2cc(NC(=O)Nc3ccc(F)cc3)ccc2O[C@@H](C)CCCCO[C@H]1CN(C)C(=O)NC1CCCCC1`, the relative growth was inactive: 1.01.

Turning to `Cc1cccc(S(=O)(=O)N2C[C@@H](O)COC[C@H]3O[C@@H](CC(=O)N4CCN(C)CC4)CC[C@@H]32)c1`, the relative growth was inactive: 1.

`O=C(C[C@H]1C=C[C@H](NS(=O)(=O)c2ccc(F)cc2)[C@@H](CO)O1)N1CCC(Cc2ccccc2)CC1`: the relative growth was inactive: 0.999.

In the case of `COc1cccc(S(=O)(=O)N(C)C[C@H]2Oc3ncc(-c4cccc(C(=O)N(C)C)c4)cc3C(=O)N([C@H](C)CO)C[C@@H]2C)c1`, the relative growth was inactive: 0.987.

For `Cc1ccc(S(=O)(=O)N[C@@H]2C=C[C@H](CC(=O)NCCN3CCCCC3)O[C@H]2CO)cc1`, the relative growth was inactive: 1.02.

Regarding `C[C@@H]1CN([C@H](C)CO)C(=O)c2cc(NC(=O)Nc3ccc(C(F)(F)F)cc3)ccc2O[C@@H]1CN(C)CC1CCCCC1`, the relative growth was inactive: 0.965.

Consider `C[C@](N)(Cc1ccc(O)cc1)C(=O)O`, for which the relative growth is inactive: 0.995.

As for `COc1ccc(S(=O)(=O)Nc2ccc3c(c2)C(=O)N([C@H](C)CO)C[C@@H](C)[C@@H](CN(C)Cc2ccc(Cl)c(Cl)c2)O3)cc1`, the relative growth is inactive: 0.918.

For `Cc1noc(C)c1NC(=O)Nc1ccc2c(c1)C(=O)N([C@H](C)CO)C[C@@H](C)[C@@H](CN(C)C(=O)Nc1ccc(C(F)(F)F)cc1)OCCCC[C@@H](C)O2`, the relative growth was inactive: 1.03.

Turning to `C[C@H](CO)N1C[C@H](C)[C@H](CN(C)S(=O)(=O)c2ccc(-n3cccn3)cc2)OCc2cnnn2CCCC1=O`, the relative growth is inactive: 1.03.

As to `C[C@@H]1CN([C@H](C)CO)C(=O)c2cc(NC(=O)Nc3ccc(C(F)(F)F)cc3)ccc2O[C@@H](C)CCCCO[C@@H]1CN(C)S(=O)(=O)c1ccc(F)cc1`, the relative growth was inactive: 1.04.

`O=C(O)[C@H]1CCCNC1`: the relative growth was inactive: 0.991.

Turning to `CN1C(=O)/C(=C\NCc2ccccc2)C(=O)c2c1n(C)c(=O)n(C)c2=O`, the relative growth was inactive: 1.01.

In the case of `CC(C)NC(=O)Nc1ccc2c(c1)CC(=O)N([C@@H](C)CO)C[C@@H](C)[C@@H](CN(C)S(=O)(=O)c1ccccc1)O2`, the relative growth is inactive: 0.984.
